The target of the test is T1, IscS_I314E/M315E (E. coli, UniProt P0A6B7 1-404, I314E | M315E).
T1 sequence: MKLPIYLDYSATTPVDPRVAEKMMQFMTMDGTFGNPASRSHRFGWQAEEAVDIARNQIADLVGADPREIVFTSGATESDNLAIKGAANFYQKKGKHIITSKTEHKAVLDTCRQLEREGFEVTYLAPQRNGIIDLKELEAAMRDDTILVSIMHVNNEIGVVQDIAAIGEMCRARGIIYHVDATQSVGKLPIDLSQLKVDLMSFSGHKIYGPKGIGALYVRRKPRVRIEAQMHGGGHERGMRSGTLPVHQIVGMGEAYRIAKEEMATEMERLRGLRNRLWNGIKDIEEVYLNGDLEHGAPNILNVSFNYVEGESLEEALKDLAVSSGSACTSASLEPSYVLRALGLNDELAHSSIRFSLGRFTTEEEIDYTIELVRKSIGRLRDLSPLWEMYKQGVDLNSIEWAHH
Put plainly: NMR titration.

From article PMC2982165 (Nature Communications, 2010) come the findings set out here.

B1: IscU (scaffold protein) (natural protein)
chain: AYSEKVIDHYENPRNVGSFDNNDENVGSGMVGAPACGDVMKLQIKVNDEGIIEDARFKTYGCGSAIASSSLVTEWVKGKSLDEAQAIKNTDIAEELELPPVKIHCSILAEDAIKAAIADYKSKREAK
modifications: 15N uniformly labelled in the NMR titrations of IscU
B1: the binding result is listed as “binds”.
